Data reported in patent publication US20090291075A1, “BINDING AGENTS AND THEIR USE IN TARGETING TUMOR CELLS” (ALTAREX MEDICAL CORP., priority 2002, published 2009).
In brackets after ≈: the same amount, converted by molar mass.

Experiments:
NIH:OVCAR-3 cells [1] = test: WST-1 assay for monitoring drug-induced cell death; details: for IC90: Homo sapiens, OVCAR-3, 72 h, read-out: IC90 (concentration to achieve 90% cell killing within 3 days)
NIH:OVCAR-3 cells [2] = test: Confocal microscopy for activated caspases (Phi-Phi-Lux, Propidium Iodide counterstain); assay type: cell-based
Method: NIH:OVCAR-3 cells were grown in tissue chamber slides (NUNC) and treated with chemotherapeutic drugs for 4-48 h, washed and stained with Phi-Phi-Lux for 1 h. Cells were washed briefly again, fixed and counterstained with Propidium Iodide prior to analysis by confocal microscopy (Zeiss, Germany).

Structure (SMILES)	IC90 (concentration to achieve 90% cell killing within 3 days) (NIH:OVCAR-3 cells [1]; NIH:OVCAR-3 cells, WST-1 assay, optimum concentration used in the examples)	IC90 (NIH:OVCAR-3 cells [1])	time after treatment at which paclitaxel-induced apoptosis peaked (NIH:OVCAR-3 cells [2]; paclitaxel 1 μg/mL (IC90), caspase 3 substrate Phi-Phi-Lux)	cells dying (NIH:OVCAR-3 cells [2]; paclitaxel 1 μg/mL, 48 h)
N.N.O=C([O-])C1(C(=O)[O-])CCC1.[Pt+2] [carboplatin]	100 µg/mL			
COc1cccc2c1C(=O)c1c(O)c3c(c(O)c1C2=O)C[C@@](O)(C(=O)CO)C[C@@H]3O[C@H]1C[C@H](N)[C@H](O)[C@H](C)O1 [doxorubicin]		100 µg/mL (≈ 184 µM)		
CC(=O)O[C@H]1C(=O)[C@@]2(C)[C@H]([C@H](OC(=O)c3ccccc3)[C@]3(O)C[C@H](OC(=O)[C@H](O)[C@@H](NC(=O)c4ccccc4)c4ccccc4)C(C)=C1C3(C)C)[C@]1(OC(C)=O)CO[C@@H]1C[C@@H]2O [paclitaxel]		1 µg/mL (≈ 1.17 µM)	4 h	almost all cells were dying
CC[C@@]1(O)C(=O)OCc2c1cc1n(c2=O)Cc2cc3c(CN(C)C)c(O)ccc3nc2-1 [topotecan]		2.5 µg/mL (≈ 5.93 µM)		
